Results as given in PubChem BioAssay (Tox21).
Where “and” joins values, the source holds several entries; their conditions need not be identical. Identical values can stand only once. Calls of active or inactive are those of the source. Unless noted, the call rests on the fitted dose curve; in most records, active means well fitted curve in the direction sought with a large enough effect in the repeat runs; inconclusive means weak or mixed curves; inactive means no such curve, though single readings can be large; an effect the other way counts as inactive or inconclusive.

Tests used:
[1] = qHTS assay to identify small molecule antagonists of the glucocorticoid receptor (GR) signaling pathway - cell viability counter screen (AID 720693); settings: GR-bla HeLa viability, CellTiter-Glo luminescence, 18 h, with 5 nM dexamethasone present; viability change, negative = cytotoxic: at 58.5 µM (top of the series) unless noted; further: nearly all actives have a fitted effect of over 55% in size
[2] = qHTS assay for identifying genotoxic compounds that show differential cytotoxicity against isogenic chicken DT40 cell lines with known DNA damage response pathways - wild type cell line (AID 743012); settings: DT40 wild type chicken cells viability, CellTiter-Glo, 40 h; activity change, negative = cytotoxicity: at 68.4 µM (top of the series) unless noted; further: nearly all actives have a fitted effect of over 60% in size
In short: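 Parental DNA repair-proficient DT40 cells, 300 per well, were pre-incubated ~0.5 h at 37 C/5% CO2, pin-dosed with compounds in DMSO, then incubated 40 h. Viability was read as CellTiter-Glo luminescence after 30 min at room temperature.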

[3] = qHTS assay for identifying genotoxic compounds that show differential cytotoxicity against isogenic chicken DT40 cell lines with known DNA damage response pathways - Rev3 mutant cell line (AID 743014); settings: chicken DT40 Rev3-/- viability, CellTiter-Glo, 40 h; activity, negative = cytotoxicity: at 68.4 µM (top of the series); further: nearly all actives have a fitted effect of over 55% in size
[4] = qHTS assay for identifying genotoxic compounds that show differential cytotoxicity against isogenic chicken DT40 cell lines with known DNA damage response pathways - Rad54/Ku70 mutant cell line (AID 743015); settings: DT40 Rad54/Ku70 mutant viability, CellTiter-Glo, 40 h; activity change, negative = cytotoxicity: at 66.8 µM (top of the series); further: nearly all actives have a fitted effect of over 60% in size
[5] = molecular target: Androgen receptor (Homo sapiens) (UniProt P10275); test: qHTS assay to identify small molecule antagonists of the androgen receptor (AR) signaling pathway (AID 743035; active means well fitted inhibition curve with a large enough effect in the signal ratio in the repeat runs, not every such curve was filed as active; inconclusive means weak or mixed curves, or effect the other way; inactive means no such curve, though single readings can be large or run the other way; the % refers to the signal ratio; on activity change, negative = inhibition: on the % scale 0 is the no-effect control and ±100 the full control effect); settings: HEK293 AR-UAS-bla, R1881-stimulated, beta-lactamase FRET, 16 h; activity change, negative = inhibition: at 58.5 µM (top of the series) unless noted
UniProt P10275, sequence (P10275 whole entry, looked up): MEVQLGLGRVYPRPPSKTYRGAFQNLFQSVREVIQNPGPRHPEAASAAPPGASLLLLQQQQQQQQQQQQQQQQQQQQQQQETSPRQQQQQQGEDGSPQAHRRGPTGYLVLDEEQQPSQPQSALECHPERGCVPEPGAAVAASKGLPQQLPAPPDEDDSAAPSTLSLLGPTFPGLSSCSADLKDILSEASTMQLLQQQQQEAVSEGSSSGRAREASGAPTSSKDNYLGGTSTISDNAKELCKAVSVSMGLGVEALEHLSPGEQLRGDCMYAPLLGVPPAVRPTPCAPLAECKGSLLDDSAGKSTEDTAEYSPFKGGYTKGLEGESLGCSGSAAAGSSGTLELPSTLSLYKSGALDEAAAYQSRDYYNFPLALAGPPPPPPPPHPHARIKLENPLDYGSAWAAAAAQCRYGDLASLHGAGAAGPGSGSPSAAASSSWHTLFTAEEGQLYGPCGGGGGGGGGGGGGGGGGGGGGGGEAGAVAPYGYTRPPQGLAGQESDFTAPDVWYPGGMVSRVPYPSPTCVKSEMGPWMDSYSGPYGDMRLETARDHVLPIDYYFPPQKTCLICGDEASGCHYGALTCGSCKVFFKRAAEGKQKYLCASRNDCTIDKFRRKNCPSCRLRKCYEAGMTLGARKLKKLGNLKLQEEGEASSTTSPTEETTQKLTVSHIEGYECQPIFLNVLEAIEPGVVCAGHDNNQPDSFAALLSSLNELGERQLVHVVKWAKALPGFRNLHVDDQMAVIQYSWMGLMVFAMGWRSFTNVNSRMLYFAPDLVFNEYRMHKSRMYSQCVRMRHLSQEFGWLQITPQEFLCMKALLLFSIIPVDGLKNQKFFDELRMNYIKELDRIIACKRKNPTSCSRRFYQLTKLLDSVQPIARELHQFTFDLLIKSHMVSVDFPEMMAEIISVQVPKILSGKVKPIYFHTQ
In short: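 HEK293 cells stably carrying a UAS-driven beta-lactamase reporter (AR-UAS-bla GripTite) were plated for 4 h at 37C, then given compound and the agonist R1881 and incubated 16 h. Reporter activity was read by LiveBLAzer B/G FRET fluorescence after 2 h at room temperature.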

[6] = molecular target: Androgen receptor (Homo sapiens) (UniProt P10275); test: qHTS assay to identify small molecule agonists of the androgen receptor (AR) signaling pathway (AID 743036; active means well fitted activation curve with a large enough effect in the signal ratio in the repeat runs, with a control signal flat, not every such curve was filed as active; inconclusive means weak or mixed curves, or effect the other way; inactive means no such curve, though single readings can be large or run the other way; the % refers to the signal ratio); settings: HEK293 AR-UAS-bla GripTite, beta-lactamase FRET ratio, 16 h; activation: at 62.4 µM (top of the series) unless noted
In short: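 AR-bla HEK293 cells, 2,000/well; 4 h preincubation 37C/5% CO2; compound (DMSO) 16 h at 37C; LiveBLAzer B/G FRET substrate 2 h RT; fluorescence intensity read-out.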

[7] = qHTS assay to identify small molecule antagonists of the thyroid receptor (TR) signaling pathway - cell viability counter screen (AID 743064); settings: GH3.TRE-Luc viability, CellTiter-Fluor, 24 h; activity change, negative = cytotoxic: at 70.3 µM (top of the series) unless noted; further: nearly all actives have a fitted effect of over 50% in size
In short: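 GH3.TRE-Luc cells, 4 h pre-plating; cpd + T3 1 nM final; 37 °C 23.5 h; CellTiter-Fluor 30 min; fluorescence read.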

[8] = qHTS assay to identify small molecule antagonists of the thyroid receptor (TR) signaling pathway (AID 743065); further: nearly all actives have a fitted effect of over 55% in size
In short: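 GH3.TRE-Luc rat pituitary cells (two TREs driving luciferase) were dosed with compound, then stimulated with 1 nM T3 (final) for 23.5 h at 37 C. ONE-Glo luminescence was the read-out, with CellTiter-Fluor fluorescence as the cytotoxicity counter-screen.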

[9] = molecular target: Estrogen receptor (Homo sapiens) (UniProt P03372); test: qHTS assay to identify small molecule antagonists of the estrogen receptor alpha (ER-alpha) signaling pathway (AID 743069; active means well fitted curve in the direction sought with a large enough effect in the signal ratio in the repeat runs, not every such curve was filed as active; inconclusive means weak or mixed curves, or effect the other way; inactive means no such curve, though single readings can be large or run the other way; the % refers to the signal ratio); settings: HEK293 ER-alpha-UAS-bla, beta-lactamase ratio, antagonist mode; activity, negative = inhibition: at 69.4 µM (top of the series) unless noted
UniProt P03372, sequence (P03372 whole entry, looked up): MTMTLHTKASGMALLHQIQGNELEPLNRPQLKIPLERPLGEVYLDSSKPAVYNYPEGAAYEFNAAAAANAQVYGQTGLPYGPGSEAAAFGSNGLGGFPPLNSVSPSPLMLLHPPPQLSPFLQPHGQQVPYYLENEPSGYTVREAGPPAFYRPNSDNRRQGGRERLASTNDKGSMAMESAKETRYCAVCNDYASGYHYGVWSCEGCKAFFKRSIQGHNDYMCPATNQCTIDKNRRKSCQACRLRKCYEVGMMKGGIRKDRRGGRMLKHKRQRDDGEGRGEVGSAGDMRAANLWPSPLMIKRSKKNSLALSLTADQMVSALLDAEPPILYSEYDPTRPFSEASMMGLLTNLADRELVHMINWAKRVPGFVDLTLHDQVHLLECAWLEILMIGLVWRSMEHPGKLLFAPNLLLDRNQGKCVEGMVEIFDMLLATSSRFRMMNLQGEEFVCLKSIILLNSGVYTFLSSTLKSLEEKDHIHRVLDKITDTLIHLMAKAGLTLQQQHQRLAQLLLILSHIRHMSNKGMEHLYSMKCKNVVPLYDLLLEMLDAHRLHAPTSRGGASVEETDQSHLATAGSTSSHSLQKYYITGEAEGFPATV
In short: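 Reporter cells (ER-alpha-bla, HEK293 background) are conditioned overnight in stripped-serum medium (2% charcoal-stripped FBS). Compound and 17beta-estradiol exposure runs 18 hr at 37C, 5% CO2.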

[10] = qHTS assay to identify small molecule antagonists of the androgen receptor (AR) signaling pathway using the MDA cell line - cell viability counter screen (AID 743041; further: nearly all actives have a fitted effect of over 45% in size); settings: MDA-kb2 viability, CellTiter-Fluor, 16 h, cells co-treated with R1881 androgen agonist; viability change, negative = cytotoxic: at 70.3 µM (top of the series) unless noted
In short: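 Same-well cytotoxicity was assessed by CellTiter-Fluor in MDA-kb2 AR-luc cells after 16 h of compound treatment under R1881 agonism.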

[11] = test system: thyroid hormone receptor (rat, GH3 cells); test: qHTS assay to identify small molecule agonists of the thyroid receptor (TR) signaling pathway (AID 743066; calls by dose curve; on activation: on the % scale 0 is the no-effect control and ±100 the full control effect); settings: GH3.TRE-Luc cells, TR agonist luciferase, 24 h; activation: at 83.9 µM (top of the series) unless noted
[12] = qHTS assay to identify small molecule antagonists of the estrogen receptor alpha (ER-alpha) signaling pathway - cell viability counter screen (AID 743074; calls by dose curve;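 further: HEK293 cells carrying ER-alpha-UAS-bla reporter stimulated with 17beta-estradiol; nearly all actives have a fitted effect of over 45% in size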)
[13] = qHTS assay to identify small molecule antagonists of the estrogen receptor alpha (ER-alpha) signaling pathway using the BG1 cell line (AID 743080; calls by dose curve;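 further: BG1 cells stimulated with 17beta-estradiol alongside compound; nearly all actives have a fitted effect of over 25% in size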; on activity change, negative = inhibition: on the % scale 0 is the no-effect control and ±100 the full control effect); settings: BG1Luc4E2 ERE-luciferase antagonist mode, luminescence
In short: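 Quantitative HTS on the Tox21 10K library: BG1 cells with endogenous ER-alpha and ERE-luciferase reporter, 17beta-estradiol stimulation, 21.5 h compound exposure, luminescence endpoint with parallel fluorescence cytotoxicity counter-read.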

Aromatase (Homo sapiens) = Aromatase (Homo sapiens) (UniProt P11511); test: qHTS assay to identify aromatase inhibitors (AID 743083); settings: MCF-7 aro ERE, testosterone-driven ERE luciferase, 24 h; activity, negative = inhibition: at 70.3 µM (top of the series); further: nearly all actives have a fitted effect of over 55% in size; on activity, negative = inhibition: on the % scale 0 is the no-effect control and ±100 the full control effect
UniProt P11511, sequence (P11511 whole entry, looked up): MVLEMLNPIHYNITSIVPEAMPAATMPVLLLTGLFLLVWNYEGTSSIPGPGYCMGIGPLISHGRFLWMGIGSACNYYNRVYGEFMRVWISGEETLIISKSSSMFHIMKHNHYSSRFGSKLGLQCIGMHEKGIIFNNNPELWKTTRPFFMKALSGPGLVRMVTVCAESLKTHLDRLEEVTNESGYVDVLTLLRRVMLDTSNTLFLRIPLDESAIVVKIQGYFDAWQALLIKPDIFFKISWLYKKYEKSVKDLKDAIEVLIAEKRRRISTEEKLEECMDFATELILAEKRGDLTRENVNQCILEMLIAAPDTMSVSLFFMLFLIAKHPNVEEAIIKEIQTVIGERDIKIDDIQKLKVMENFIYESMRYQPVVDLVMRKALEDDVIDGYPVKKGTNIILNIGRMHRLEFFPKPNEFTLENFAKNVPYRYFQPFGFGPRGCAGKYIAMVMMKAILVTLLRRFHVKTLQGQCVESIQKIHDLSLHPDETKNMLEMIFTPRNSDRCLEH

[14] = qHTS assay to identify small molecule antagonists of the androgen receptor (AR) signaling pathway - cell viability counter screen (AID 743033; further: nearly all actives have a fitted effect of over 45% in size); settings: AR-bla HEK293 viability, CellTiter-Glo luminescence, 16 h; activity change, negative = cytotoxicity: at 58.5 µM (top of the series) unless noted
[15] = molecular target: Androgen receptor (Homo sapiens) (UniProt P10275); test: qHTS assay to identify small molecule antagonists of the androgen receptor (AR) signaling pathway using the MDA cell line (AID 743042; further: nearly all actives have a fitted effect of over 55% in size)
In short: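 MDA-kb2 breast carcinoma cells carrying MMTV-luciferase (AR/GR responsive) were co-treated with compounds and the agonist R1881 for 16 h at 37C. Inhibition read as ONE-Glo luminescence; CellTiter-Fluor fluorescence measured in parallel for cytotoxicity.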

[16] = molecular target: Estrogen receptor (Homo sapiens) (UniProt P03372); test: qHTS assay to identify small molecule agonists of the estrogen receptor alpha (ER-alpha) signaling pathway (AID 743075; calls by dose curve)
[17] = molecular target: Estrogen receptor (Homo sapiens) (UniProt P03372); test: qHTS assay to identify small molecule agonists of the estrogen receptor alpha (ER-alpha) signaling pathway using the BG1 cell line (AID 743079); settings: BG1Luc4E2 cells, ERE-luciferase agonist, 22 h; activation: at 70.3 µM (top of the series) unless noted; further: nearly all actives have a fitted effect of over 20% in size
[18] = qHTS assay to identify small molecule antagonists of the estrogen receptor alpha (ER-alpha) signaling pathway using the BG1 cell line - cell viability counter screen (AID 743081); settings: BG1Luc4E2 viability, CellTiter-Fluor, 22 h; activity change, negative = cytotoxicity: at 70.3 µM (top of the series) unless noted;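 further: compound given together with 17beta-estradiol as the ER stimulus; nearly all actives have a fitted effect of over 45% in size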
[19] = activity change, negative = inhibition: at 70.3 µM (top of the series) unless noted
Potency means the concentration at half of the fitted maximal effect; tags describe the fitted curve by direction and shape or compound fluorescence and quenching.

## O=S(c1cc(Cl)cc(Cl)c1O)c1cc(Cl)cc(Cl)c1O
[1]
  Potency: inconclusive: 26.8 µM [cytotoxic, single point]
[2]
  Potency: inconclusive: 33.5 µM [cytotoxic]
[3]
  Potency: inconclusive: 33.5 µM [cytotoxic, single point]
[4]
  Potency: inconclusive: 33.5 µM [cytotoxic, single point]
[5]
  activity change, negative = inhibition: inconclusive: -6.55%
[6]
  Potency: inconclusive: 21.3 µM [rising, partial curve, poor fit]
[7]
  Potency: inconclusive: 33.5 µM [cytotoxic, single point]
[8]
  Potency: inconclusive: 33.5 µM [inhibitor, single point]
[9]
  Potency: inconclusive: 26.8 µM [single point]

## Cc1c(C)c2c(c(C)c1OC(=O)CCC(=O)OCCO)CC[C@@](C)(CCC[C@H](C)CCC[C@H](C)CCCC(C)C)O2
[1]
  Potency: active: 21.3 µM
[2]
  Potency: active: 11.9 µM
[4]
  Potency: active: 11.9 µM
[10]
  Potency: inconclusive: 33.5 µM [cytotoxic, single point]
[8]
  Potency: active: 23.7 µM
[11]
  activation: inconclusive: -9.25% [phenotype inactive]
[9]
  Potency: active: 9.52 µM [inconclusive]
[12]
  Potency: inconclusive: 21.3 µM [cytotoxic, partial curve, poor fit]
[13]; [19]
  activity change, negative = inhibition: inconclusive: -9.86%
Aromatase (Homo sapiens)
  Potency: inconclusive: 33.5 µM [inhibitor, single point]

## C=CC(=O)OCCCCCCOC(=O)C=C
[1]
  Potency: inconclusive: 62.4 µM [cytotoxic, partial curve, poor fit] and inconclusive: 61.7 µM [cytotoxic, single point]
[2]
  Potency: inconclusive: 77.9 µM [cytotoxic, single point]
[14]
  Potency: inconclusive: 55.6 µM [cytotoxic] and inconclusive: 27.5 µM [cytotoxic, partial curve, poor fit]
[5]
  Potency: inconclusive: 62.4 µM [falling, single point] and inconclusive: 54.9 µM [falling, single point]
[6]
  Potency: inconclusive: 19.7 µM [activator, single point] and inconclusive: 21.9 µM [activator, single point]
[15]
  Potency: inconclusive: 69.4 µM [inhibitor, single point] and inconclusive: 48.6 µM [inhibitor, partial curve]
[7]
  Potency: active: 55.1 µM and active: 54.5 µM
[9]
  Potency: inconclusive: 62.4 µM [fluorescent, single point] and inconclusive: 24.5 µM [activator]
[12]
  Potency: inconclusive: 62.4 µM [cytotoxic, single point]
[16]
  Potency: inconclusive: 49.6 µM [partial curve] and inconclusive: 54.9 µM [single point]
[17]
  Potency: inconclusive: 61.1 µM [activator]
[13]; [19]
  Potency: inconclusive: 34.8 µM [rising, partial curve] and inconclusive: 34.4 µM [rising, partial curve]
Aromatase (Homo sapiens)
  Potency: inconclusive: 77.9 µM [inhibitor, single point]
  activity, negative = inhibition: inconclusive: -64.1% [inhibitor]

## CCO[Si](CCCSSSSCCC[Si](OCC)(OCC)OCC)(OCC)OCC
[1]
  Potency: inconclusive: 49 µM [cytotoxic, single point]
[2]
  Potency: inconclusive: 77 µM [cytotoxic, single point]
[14]
  Potency: inconclusive: 13.8 µM [cytotoxic, full curve]
[7]
  Potency: inconclusive: 68.7 µM [cytotoxic, single point]
[8]
  Potency: inconclusive: 68.7 µM [inhibitor, single point]
[12]
  Potency: inconclusive: 61.7 µM [cytotoxic, single point]

## COc1cc(CNC(=O)CCCC/C=C/C(C)C)ccc1O
[1]
  Potency: inconclusive: 60 µM [rising, partial curve, poor fit]
[2]
  Potency: inconclusive: 33.5 µM [cytotoxic, single point] and inactive
[4]
  Potency: inconclusive: 33.5 µM [cytotoxic, single point]
[8]
  Potency: inconclusive: 29.8 µM [inhibitor, single point] and inconclusive: 16.8 µM [inhibitor, partial curve, poor fit]
[9]
  Potency: inconclusive: 15.1 µM [activator, partial curve]
[12]
  Potency: inactive
[17]
  Potency: inconclusive: 47.3 µM [inhibitor, partial curve, poor fit]
[13]; [19]
  activity change, negative = inhibition: inconclusive: -6.63%
[13]; at 70.3 µM (top of the series)
  activity change, negative = inhibition: inactive: -2.37%
Aromatase (Homo sapiens)
  Potency: inconclusive: 23.7 µM [inhibitor, partial curve, poor fit] and inconclusive: 18.8 µM [inhibitor, partial curve]

## O=C1NC2CCCCN2C12CCN(CCCN1c3ccccc3CCc3ccc(Cl)cc31)CC2 (centres undefined)
[1]
  Potency: inconclusive: 21.3 µM [cytotoxic, partial curve]
[2]
  Potency: active: 9.44 µM
[3]
  Potency: active: 13.3 µM
[14]
  Potency: inconclusive: 23.9 µM [cytotoxic, partial curve, poor fit]
[11]
  Potency: inconclusive: 9.44 µM [inhibitor, partial curve, poor fit]
[9]
  Potency: inconclusive: 9.52 µM [rising, full curve]
[17]
  Potency: inconclusive: 33.5 µM [inhibitor]
[13]; [19]
  Potency: inconclusive: 33.5 µM [falling, single point]
[18]
  Potency: inconclusive: 13.3 µM [cytotoxic, single point]

## N[C@@H](CS)C(=O)O
[1]
  Potency: inconclusive: 6.25 µM [rising, single point]
